Measurements reported in the supplement of paper PMC12230231.
± gives the standard deviation of the averaged measurements. Restriction of a single-cycle SIVsab GFP reporter by TRIM5α v1-loop variants in CRFK cells. Human variants: read share among cells still uninfected after two challenges over input, higher = gained restriction. Rhesus variants: share among infected cells over input, higher = lost restriction. Reporter dose not given per row. No active / inactive call per row; the paper calls a change when both replicates lie above its controls (mean + 2 SD of stop or wild-type variants, or the top frameshift score). Residues outside the varied loop are taken from Swiss-Prot. The paper reads the human single-substitution scores as noise; they and the rhesus combinations repeat poorly (rank correlation 0.3 to 0.4), indel scores repeat only for the top variants, rhesus substitutions well (0.9).

What follows are sequences tested on SIVsab (simian immunodeficiency virus of sabaeus monkeys), single-cycle GFP reporter, in CRFK cells (assay: enrichment among uninfected cells over input (fold); higher = stronger restriction). Conditions: library: human / rhesus combinations.
Procedure: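 Pools of CRFK cells expressing variants of the TRIM5α v1 loop were challenged with the single-cycle reporter, sorted by GFP and sequenced; mean of two replicates.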
In the case of “MASGILVNVKEEVTCPICLELLTQPLSLDCGHSFCQACLTANHKKSMLDKGESSCPVCRISYQPENIRPNRHVANIVEKLREVKLSPEGQKVDHCARHGEKLLLFCQEDGKVICWLCERSQEHRGHHTFLTEEVAREYQVKLQAALEMLRQKQQEAEELEADIREEKASWKTQIQYDKTNVLADFEQLRDILDWEESNELQNLEKEEEDILKSLTNSETEMVQQTQSLRELISDLEHRLQGSVMELLQGVDGVIKRTENVTLKKPETFPKNQRRVFRAPDLKGMLEVFRELTDVRRYWVDVTVAPNNISCAVISEDKRQVSSPKPQIIYQARGTRFPSFVNFNYCTGILGSQSITSGKHYWEVDVSKKTAWILGVCAGFQPDAMCNIEKNENYQPKYGYWVIGLEEGVKCSAFQDSSFHTPSVPFIVPLSVIICPDRVGVFLDYEACTVSFFNITNHGFLIYKFSHCSFSQPVFPYLNPRKCGVPMTLCSPSS [human TRIM5α, 330-340 = QARGTRFPSFV]”, the enrichment is reported as 0.0935 ± 0.13.
“MASGILVNVKEEVTCPICLELLTQPLSLDCGHSFCQACLTANHKKSMLDKGESSCPVCRISYQPENIRPNRHVANIVEKLREVKLSPEGQKVDHCARHGEKLLLFCQEDGKVICWLCERSQEHRGHHTFLTEEVAREYQVKLQAALEMLRQKQQEAEELEADIREEKASWKTQIQYDKTNVLADFEQLRDILDWEESNELQNLEKEEEDILKSLTNSETEMVQQTQSLRELISDLEHRLQGSVMELLQGVDGVIKRTENVTLKKPETFPKNQRRVFRAPDLKGMLEVFRELTDVRRYWVDVTVAPNNISCAVISEDKRQVSSPKPQIIYQARGTRFTFQTLTNFNYCTGILGSQSITSGKHYWEVDVSKKTAWILGVCAGFQPDAMCNIEKNENYQPKYGYWVIGLEEGVKCSAFQDSSFHTPSVPFIVPLSVIICPDRVGVFLDYEACTVSFFNITNHGFLIYKFSHCSFSQPVFPYLNPRKCGVPMTLCSPSS [human TRIM5α, 330-340 = QARGTRFTFQTLT]” was tested, and the enrichment was 0.452 ± 0.25.
Sequence “MASGILVNVKEEVTCPICLELLTQPLSLDCGHSFCQACLTANHKKSMLDKGESSCPVCRISYQPENIRPNRHVANIVEKLREVKLSPEGQKVDHCARHGEKLLLFCQEDGKVICWLCERSQEHRGHHTFLTEEVAREYQVKLQAALEMLRQKQQEAEELEADIREEKASWKTQIQYDKTNVLADFEQLRDILDWEESNELQNLEKEEEDILKSLTNSETEMVQQTQSLRELISDLEHRLQGSVMELLQGVDGVIKRTENVTLKKPETFPKNQRRVFRAPDLKGMLEVFRELTDVRRYWVDVTVAPNNISCAVISEDKRQVSSPKPQIIYGARGTLYTFPSFVNFNYCTGILGSQSITSGKHYWEVDVSKKTAWILGVCAGFQPDAMCNIEKNENYQPKYGYWVIGLEEGVKCSAFQDSSFHTPSVPFIVPLSVIICPDRVGVFLDYEACTVSFFNITNHGFLIYKFSHCSFSQPVFPYLNPRKCGVPMTLCSPSS [human TRIM5α, 330-340 = GARGTLYTFPSFV]” has an enrichment of 0.201 ± 0.083.
“MASGILVNVKEEVTCPICLELLTQPLSLDCGHSFCQACLTANHKKSMLDKGESSCPVCRISYQPENIRPNRHVANIVEKLREVKLSPEGQKVDHCARHGEKLLLFCQEDGKVICWLCERSQEHRGHHTFLTEEVAREYQVKLQAALEMLRQKQQEAEELEADIREEKASWKTQIQYDKTNVLADFEQLRDILDWEESNELQNLEKEEEDILKSLTNSETEMVQQTQSLRELISDLEHRLQGSVMELLQGVDGVIKRTENVTLKKPETFPKNQRRVFRAPDLKGMLEVFRELTDVRRYWVDVTVAPNNISCAVISEDKRQVSSPKPQIIYQAPGTRFQSLVNFNYCTGILGSQSITSGKHYWEVDVSKKTAWILGVCAGFQPDAMCNIEKNENYQPKYGYWVIGLEEGVKCSAFQDSSFHTPSVPFIVPLSVIICPDRVGVFLDYEACTVSFFNITNHGFLIYKFSHCSFSQPVFPYLNPRKCGVPMTLCSPSS [human TRIM5α, 330-340 = QAPGTRFQSLV]” showed an enrichment of 0.0619 ± 0.085.
In the case of “MASGILVNVKEEVTCPICLELLTQPLSLDCGHSFCQACLTANHKKSMLDKGESSCPVCRISYQPENIRPNRHVANIVEKLREVKLSPEGQKVDHCARHGEKLLLFCQEDGKVICWLCERSQEHRGHHTFLTEEVAREYQVKLQAALEMLRQKQQEAEELEADIREEKASWKTQIQYDKTNVLADFEQLRDILDWEESNELQNLEKEEEDILKSLTNSETEMVQQTQSLRELISDLEHRLQGSVMELLQGVDGVIKRTENVTLKKPETFPKNQRRVFRAPDLKGMLEVFRELTDVRRYWVDVTVAPNNISCAVISEDKRQVSSPKPQIIYGAPGTRYTFQSFTNFNYCTGILGSQSITSGKHYWEVDVSKKTAWILGVCAGFQPDAMCNIEKNENYQPKYGYWVIGLEEGVKCSAFQDSSFHTPSVPFIVPLSVIICPDRVGVFLDYEACTVSFFNITNHGFLIYKFSHCSFSQPVFPYLNPRKCGVPMTLCSPSS [human TRIM5α, 330-340 = GAPGTRYTFQSFT]”, the enrichment is reported as 0.199 ± 0.057.
Sequence “MASGILVNVKEEVTCPICLELLTQPLSLDCGHSFCQACLTANHKKSMLDKGESSCPVCRISYQPENIRPNRHVANIVEKLREVKLSPEGQKVDHCARHGEKLLLFCQEDGKVICWLCERSQEHRGHHTFLTEEVAREYQVKLQAALEMLRQKQQEAEELEADIREEKASWKTQIQYDKTNVLADFEQLRDILDWEESNELQNLEKEEEDILKSLTNSETEMVQQTQSLRELISDLEHRLQGSVMELLQGVDGVIKRTENVTLKKPETFPKNQRRVFRAPDLKGMLEVFRELTDVRRYWVDVTVAPNNISCAVISEDKRQVSSPKPQIIYQARGTLYTFQSFTNFNYCTGILGSQSITSGKHYWEVDVSKKTAWILGVCAGFQPDAMCNIEKNENYQPKYGYWVIGLEEGVKCSAFQDSSFHTPSVPFIVPLSVIICPDRVGVFLDYEACTVSFFNITNHGFLIYKFSHCSFSQPVFPYLNPRKCGVPMTLCSPSS [human TRIM5α, 330-340 = QARGTLYTFQSFT]” has an enrichment of 0.408 ± 0.095.

Same assay, conditions: library: insertions and deletions
“MASGILVNVKEEVTCPICLELLTQPLSLDCGHSFCQACLTANHKKSMLDKGESSCPVCRISYQPENIRPNRHVANIVEKLREVKLSPEGQKVDHCARHGEKLLLFCQEDGKVICWLCERSQEHRGHHTFLTEEVAREYQVKLQAALEMLRQKQQEAEELEADIREEKASWKTQIQYDKTNVLADFEQLRDILDWEESNELQNLEKEEEDILKSLTNSETEMVQQTQSLRELISDLEHRLQGSVMELLQGVDGVIKRTENVTLKKPETFPKNQRRVFRAPDLKGMLEVFRELTDVRRYWVDVTVAPNNISCAVISEDKRQVSSPKPRGTRYQTFVNFNYCTGILGSQSITSGKHYWEVDVSKKTAWILGVCAGFQPDAMCNIEKNENYQPKYGYWVIGLEEGVKCSAFQDSSFHTPSVPFIVPLSVIICPDRVGVFLDYEACTVSFFNITNHGFLIYKFSHCSFSQPVFPYLNPRKCGVPMTLCSPSS [human TRIM5α, 6-codon deletion at 326]” gave an enrichment of 2.48 ± 3.4.
In the case of “MASGILVNVKEEVTCPICLELLTQPLSLDCGHSFCQACLTANHKKSMLDKGESSCPVCRISYQPENIRPNRHVANIVEKLREVKLSPEGQKVDHCARHGEKLLLFCQEDGKVICWLCERSQEHRGHHTFLTEEVAREYQVKLQAALEMLRQKQQEAEELEADIREEKASWKTQIQYDKTNVLADFEQLRDILDWEESNELQNLEKEEEDILKSLTNSETEMVQQTQSLRELISDLEHRLQGSVMELLQGVDGVIKRTENVTLKKPETFPKNQRRVFRAPDLKGMLEVFRELTDVRRYWVDVTVAPNNISCAVISEDKRQVSSPKPQRYQTFVNFNYCTGILGSQSITSGKHYWEVDVSKKTAWILGVCAGFQPDAMCNIEKNENYQPKYGYWVIGLEEGVKCSAFQDSSFHTPSVPFIVPLSVIICPDRVGVFLDYEACTVSFFNITNHGFLIYKFSHCSFSQPVFPYLNPRKCGVPMTLCSPSS [human TRIM5α, 8-codon deletion at 327]”, the enrichment is reported as 1.19 ± 0.59.
Sequence “MASGILVNVKEEVTCPICLELLTQPLSLDCGHSFCQACLTANHKKSMLDKGESSCPVCRISYQPENIRPNRHVANIVEKLREVKLSPEGQKVDHCARHGEKLLLFCQEDGKVICWLCERSQEHRGHHTFLTEEVAREYQVKLQAALEMLRQKQQEAEELEADIREEKASWKTQIQYDKTNVLADFEQLRDILDWEESNELQNLEKEEEDILKSLTNSETEMVQQTQSLRELISDLEHRLQGSVMELLQGVDGVIKRTENVTLKKPETFPKNQRRVFRAPDLKGMLEVFRELTDVRRYWVDVTVAPNNISCAVISEDKRQVSSPKPQIIYGARTRYQTFVNFNYCTGILGSQSITSGKHYWEVDVSKKTAWILGVCAGFQPDAMCNIEKNENYQPKYGYWVIGLEEGVKCSAFQDSSFHTPSVPFIVPLSVIICPDRVGVFLDYEACTVSFFNITNHGFLIYKFSHCSFSQPVFPYLNPRKCGVPMTLCSPSS [human TRIM5α, 1-codon deletion at 333]” has an enrichment of 0.539 ± 0.31.
Sequence “MASGILVNVKEEVTCPICLELLTQPLSLDCGHSFCQACLTANHKKSMLDKGESSCPVCRISYQPENIRPNRHVANIVEKLREVKLSPEGQKVDHCARHGEKLLLFCQEDGKVICWLCERSQEHRGHHTFLTEEVAREYQVKLQAALEMLRQKQQEAEELEADIREEKASWKTQIQYDKTNVLADFEQLRDILDWEESNELQNLEKEEEDILKSLTNSETEMVQQTQSLRELISDLEHRLQGSVMELLQGVDGVIKRTENVTLKKPETFPKNQRRVFRAPDLKGMLEVFRELTDVRRYWVDVTVAPNNISCAVISEDKRQVSSPKPQIIYGARGTYGARGTRYQTFVNFNYCTGILGSQSITSGKHYWEVDVSKKTAWILGVCAGFQPDAMCNIEKNENYQPKYGYWVIGLEEGVKCSAFQDSSFHTPSVPFIVPLSVIICPDRVGVFLDYEACTVSFFNITNHGFLIYKFSHCSFSQPVFPYLNPRKCGVPMTLCSPSS [human TRIM5α, 6-codon duplication at 329]” has an enrichment of 0.467 ± 0.084.
For “MASGILVNVKEEVTCPICLELLTQPLSLDCGHSFCQACLTANHKKSMLDKGESSCPVCRISYQPENIRPNRHVANIVEKLREVKLSPEGQKVDHCARHGEKLLLFCQEDGKVICWLCERSQEHRGHHTFLTEEVAREYQVKLQAALEMLRQKQQEAEELEADIREEKASWKTQIQYDKTNVLADFEQLRDILDWEESNELQNLEKEEEDILKSLTNSETEMVQQTQSLRELISDLEHRLQGSVMELLQGVDGVIKRTENVTLKKPETFPKNQRRVFRAPDLKGMLEVFRELTDVRRYWVDVTVAPNNISCAVISEDKRQVSSPKPQIIYGARGTRYQTFNYCTGILGSQSITSGKHYWEVDVSKKTAWILGVCAGFQPDAMCNIEKNENYQPKYGYWVIGLEEGVKCSAFQDSSFHTPSVPFIVPLSVIICPDRVGVFLDYEACTVSFFNITNHGFLIYKFSHCSFSQPVFPYLNPRKCGVPMTLCSPSS [human TRIM5α, 3-codon deletion at 339]”, the enrichment was 1.23 ± 0.4.
For “MASGILVNVKEEVTCPICLELLTQPLSLDCGHSFCQACLTANHKKSMLDKGESSCPVCRISYQPENIRPNRHVANIVEKLREVKLSPEGQKVDHCARHGEKLLLFCQEDGKVICWLCERSQEHRGHHTFLTEEVAREYQVKLQAALEMLRQKQQEAEELEADIREEKASWKTQIQYDKTNVLADFEQLRDILDWEESNELQNLEKEEEDILKSLTNSETEMVQQTQSLRELISDLEHRLQGSVMELLQGVDGVIKRTENVTLKKPETFPKNQRRVFRAPDLKGMLEVFRELTDVRRYWVDVTVAPNNISCAVISEDKRQVSSPKPQIIIIYGARGTRYQTFVNFNYCTGILGSQSITSGKHYWEVDVSKKTAWILGVCAGFQPDAMCNIEKNENYQPKYGYWVIGLEEGVKCSAFQDSSFHTPSVPFIVPLSVIICPDRVGVFLDYEACTVSFFNITNHGFLIYKFSHCSFSQPVFPYLNPRKCGVPMTLCSPSS [human TRIM5α, 2-codon duplication at 327]”, the enrichment was 0.867 ± 0.15.
